{"source": "patent US20100291088A1", "about": "(published 2010)", "binders": {"B1": {"name": "2.5(E)mg1 (antibody, human IgG1, kappa)", "heavy": "ZVQLVQSGTEVKKPGESLKISCKGSGYTVTSYWIGWVRQMPGKGLEWMGFIYPGDSETRYSPTFQGQVTISADKSFNTAFLQWSSLKASDTAMYYCARVGSGWYPYTFDIWGQGTMVTVSSASTKGPSVFPLAPSSKSTSGGTAALGCLVKDYFPEPVTVSWNSGALTSGVHTFPAVLQSSGLYSLSSVVTVPSSSLGTQTYICNVNHKPSNTKVDKKV[letters of human IgG1 Fc with changes not shown]", "light": "EIVMTQSPATLSVSPGERATLSCRASESISSNLAWYQQKPGQAPRLFIYTASTRATDIPARFSGSGSGTEFTLTISSLQSEDFAVYYCQQYNNWPSITFGQGTRLEIKRTVAAPSVFIFPPSDEQLKSGTASVVCLLNNFYPREAKVQWKVDNALQSGNSQESVTEQDSKDSTYSLSSTLTLSKADYEKHKVYACEVTHQGLSSPVTKSFNRGEC"}, "B2": {"name": "2.5(E)wtg1 (antibody, human IgG1, kappa)", "heavy": "ZVQLVQSGTEVKKPGESLKISCKGSGYTVTSYWIGWVRQMPGKGLEWMGFIYPGDSETRYSPTFQGQVTISADKSFNTAFLQWSSLKASDTAMYYCARVGSGWYPYTFDIWGQGTMVTVSS[letters of human IgG1 constant region not shown]", "light": "EIVMTQSPATLSVSPGERATLSCRASESISSNLAWYQQKPGQAPRLFIYTASTRATDIPARFSGSGSGTEFTLTISSLQSEDFAVYYCQQYNNWPSITFGQGTRLEIKRTVAAPSVFIFPPSDEQLKSGTASVVCLLNNFYPREAKVQWKVDNALQSGNSQESVTEQDSKDSTYSLSSTLTLSKADYEKHKVYACEVTHQGLSSPVTKSFNRGEC"}}, "key": {"(4C/A)-huIL-18 [1]": {"biological_target": "T1, (4C/A)-huIL-18 (human, UniProt Q14116 37-193)", "assay": "cell-based or functional assay"}, "(4C/A)-huIL-18 [2]": {"biological_target": "T1, (4C/A)-huIL-18", "assay": "cell-based or functional assay", "remark": "listed apart in the source"}}, "data": [{"binder": "B1", "values": [{"measurement": "KG-1 Bioassay IC50", "setting": "(4C/A)-huIL-18 [1]", "value": 0.2, "unit": "nM"}, {"measurement": "KG-1 neutralization potency in vitro (IC50, nM)", "setting": "(4C/A)-huIL-18 [2]", "value": 0.2, "unit": "nM"}]}, {"binder": "B2", "values": [{"measurement": "KG-1 Bioassay IC50", "setting": "(4C/A)-huIL-18 [1]", "value": 0.4, "unit": "nM"}]}]}
